# PubChem BioAssay AID360 (National Center for Advancing Translational Sciences (NCATS), 2006)
# The campaign covered roughly 48,000 compounds. About 550 (1.1%) were called active. Another 4% or so got no clear call; they are omitted. No stated cut-off is given here; in the data, active means potency below about 15 µM; inconclusive means mostly about 16 µM to 33 µM; inactive means weaker than that. Some of the results follow.
# Target: Lysosomal acid glucosylceramidase (Homo sapiens) (UniProt P04062)
# Sequence of UniProt P04062 (P04062 whole entry, looked up): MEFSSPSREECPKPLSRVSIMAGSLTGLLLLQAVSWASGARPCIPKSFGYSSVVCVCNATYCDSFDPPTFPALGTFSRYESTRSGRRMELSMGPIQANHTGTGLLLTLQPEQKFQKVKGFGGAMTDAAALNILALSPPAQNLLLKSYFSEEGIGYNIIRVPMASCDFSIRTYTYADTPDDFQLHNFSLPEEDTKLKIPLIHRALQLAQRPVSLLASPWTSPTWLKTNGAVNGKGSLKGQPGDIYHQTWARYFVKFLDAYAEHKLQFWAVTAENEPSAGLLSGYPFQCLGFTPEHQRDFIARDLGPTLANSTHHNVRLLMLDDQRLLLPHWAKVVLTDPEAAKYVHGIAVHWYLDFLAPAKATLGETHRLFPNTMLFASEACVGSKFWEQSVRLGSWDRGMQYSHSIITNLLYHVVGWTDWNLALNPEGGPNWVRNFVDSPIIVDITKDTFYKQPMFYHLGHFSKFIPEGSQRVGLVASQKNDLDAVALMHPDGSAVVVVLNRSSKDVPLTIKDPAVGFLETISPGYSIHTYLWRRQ
# Experiment: Glucocerebrosidase;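 further: the screen sought inhibitors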
# Details: purified enzyme, resorufin glucoside fluorescence (screen aimed at inhibitors), 20 min; series mostly up to 77 µM
# How it was run: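 Compounds titrated against 0.2 nM normal enzyme, 30 uM resorufin beta-D-glucopyranoside substrate, citrate/phosphate buffer with taurocholate and tween-20, pH 5.9. Reaction ran 20 min at room temperature; fluorescence (Ex 548/Em 600) gave AC50.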
# Potency means the concentration at half of the fitted maximal effect.
row,Structure (SMILES),Potency
1,COc1cc(C2NC(=O)NC(C)=C2C(=O)OC(C)(C)C)ccc1OCC(=O)O (configuration not stated),inactive: > 76.9 µM
2,Cc1cc(=O)n2c(-c3ccccc3C)n[nH]c2n1,inactive: > 76.9 µM
3,CCOC(=O)N1CCN(S(=O)(=O)c2ccc(OCC(=O)OC)c(C)c2)CC1,inactive: > 76.9 µM
4,CCCn1cc(S(=O)(=O)CC(=O)Nc2ccc(OCC)cc2)c2ccccc21,inactive: > 76.9 µM
5,COc1ccc(-c2cnc(N)n2CC2CCCO2)cc1 (configuration not stated),inactive
6,CCOc1cc2[nH]c(=O)n(CCCC(=O)NCc3ccco3)c(=O)c2cc1OCC,inactive: > 76.9 µM
7,CN1CCCC(OC(=O)c2cc(Br)ccc2Cl)C1 (configuration not stated),inactive: > 76.9 µM
8,Cc1nc2c(C(=O)NCc3ccc(F)cc3)c[nH]n2c(=O)c1Cl,inactive: > 76.9 µM
9,Cc1cc(C)n(C(=O)COc2c(C)cccc2C)n1,inactive: > 76.9 µM
10,Cc1cccc(Nc2nn3c(=O)c4ccccc4nc3s2)c1,inactive: > 76.9 µM
11,COc1ccc(CCn2c(-c3ccco3)nc3oc4ccccc4c(=O)c3c2=O)cc1,inactive: > 76.9 µM
12,CCC(=O)N1CCc2cc(S(=O)(=O)CCC(=O)Nc3ccc(CC)cc3)ccc21,inactive: > 76.9 µM
13,CCCS(=O)(=O)N1CCCC(C(=O)NCCN2CCOCC2)C1 (configuration not stated),inactive: > 76.9 µM
14,COc1ccc2cc(C3(C)NC(=O)NC3=O)ccc2c1 (configuration not stated),inactive: > 76.9 µM
15,COc1ccc(NC(=O)CN2C(=O)C(C)Oc3ccccc32)c(OC)c1 (configuration not stated),inactive: > 76.9 µM
16,CC1CN(c2cc3nccnc3cc2F)CC(C)O1 (configuration not stated),inactive: > 76.9 µM
17,CC1(C)C(=O)NCCN1C(=O)CSc1nccc(-c2ccc(Br)cc2)n1,inactive: > 76.9 µM
18,CCC(=O)N1CCN(c2ccccc2NC(=O)COc2cc(C)ccc2C(C)C)CC1,inactive: > 76.9 µM
19,O=C(Nc1ccc(-c2noc(CCc3ccccc3)n2)cc1)c1cccnc1,active: 14.1 µM

row,Structure (SMILES),Potency
1,COc1ccc(Cl)cc1NC(=O)CSc1ncnc2c1oc1ccccc12,inactive: > 76.9 µM
2,Cc1cc2c(c(=O)o1)C1(C(=O)N(CC(=O)O)c3ccccc31)C(C#N)=C(N)O2 (configuration not stated),inactive: > 76.9 µM
3,COc1cc(C(=O)NCc2ccco2)cc(OC)c1OC,inactive: > 76.9 µM
4,O=C(c1cccc(F)c1)N1CCN(S(=O)(=O)c2ccc(C(F)(F)F)cc2)CC1,inactive: > 76.9 µM
5,CCOC(=O)N1CCN(S(=O)(=O)c2ccc(C)c(C)c2C)CC1,inactive: > 76.9 µM
6,O=C(c1ccc(CNS(=O)(=O)c2cccc(C(F)(F)F)c2)cc1)N1CCOCC1,inactive: > 76.9 µM
7,CCc1ccccc1NC(=O)CSc1nnc([C@@H](N)Cc2ccccc2)o1,inactive: > 76.9 µM
8,CC1CC(C(O)c2ccccn2)C(=O)C(C(O)c2ccccn2)C1 (configuration not stated),inactive: > 76.9 µM
9,COC(=O)C1CN(S(=O)(=O)c2ccc(C)cc2)CCN1S(=O)(=O)c1ccc(C)cc1 (configuration not stated),inactive: > 76.9 µM
10,CCCN(CCC)CCNC(=O)CS(=O)Cc1nc(-c2ccc(C)cc2)oc1C (configuration not stated),inactive: > 76.9 µM
11,COc1cc(C(=O)NCc2cn3ccccc3n2)cc(OC)c1OC,inactive: > 76.9 µM
12,COc1ccc(C(=O)CSc2nc3nc(C)cc(C)n3n2)cc1OC,inactive: > 76.9 µM
13,Cc1c(C(=O)NCc2ccco2)oc2ccc(S(=O)(=O)N3CCC4(CC3)OCCO4)cc12,inactive: > 76.9 µM
14,Cn1c(CCN2CCCCC2)nc2cc(NS(=O)(=O)c3ccccc3)ccc21,inactive: > 76.9 µM
15,CCOc1ccc(N2CC(C(=O)Nc3ccc(F)cc3F)CC2=O)cc1 (configuration not stated),inactive: > 76.9 µM
16,O=C(NCc1ccccc1)NC1(C(=O)N2CCOCC2)CCCCC1,inactive: > 76.9 µM
17,CCC(=O)N(Cc1cc2cc(OC)ccc2[nH]c1=O)c1ccc(C)cc1C,inactive: > 76.9 µM
18,COc1ccc(-c2ccc(SCC(=O)N3CCCC3)nn2)cc1OC,inactive: > 76.9 µM
19,O=C(Nc1ccc(Cc2ccncc2)cc1)c1ccc(Br)o1,inactive: > 76.9 µM

row,Structure (SMILES),Potency
1,O=c1nccc(NCc2ccco2)[nH]1,inactive: > 76.9 µM
2,CS(=O)(=O)N(CC(=O)N1CCc2ccccc2C1)c1ccc2c(c1)OCO2,inactive: > 76.9 µM
3,C=CCNC1=C(Cl)C(=O)N(c2ccccc2Cl)C1=O,inactive: > 76.9 µM
4,Cc1cc(C(=O)COC(=O)CCc2nc3ccccc3s2)c(C)n1C,inactive: > 76.9 µM
5,CCn1cc(C(=O)Nc2nncs2)c(=O)c2cc(F)c(N3CCN(C(=O)c4ccco4)CC3)cc21,inactive: > 76.9 µM
6,CCC(=O)Nc1ccc(N2CCN(C(=O)c3ccccc3C)CC2)cc1,inactive: > 76.9 µM
7,CCOC(=O)Cc1csc(NC(=O)c2ccc(S(=O)(=O)N3CCCC3)cc2)n1,inactive: > 76.9 µM
8,Cc1ccc(CCN2CC(C(=O)NC3CCCC3)CC2=O)cc1 (configuration not stated),inactive: > 76.9 µM
9,CCOC(=O)N1CCC(NC(=O)CCN2C(=O)C3C4C=CC(C4)C3C2=O)CC1 (configuration not stated),inactive: > 76.9 µM
10,COC(=O)CC1C(=O)NCCN1C(=O)Nc1ccccc1 (configuration not stated),inactive: > 76.9 µM
11,COC(=O)Cn1cc(C(=O)c2ccco2)c2ccccc21,inactive: > 76.9 µM
12,O=C1COc2ccc(C(=O)c3ccccc3)cc2CN1,inactive: > 76.9 µM
13,c1csc(Cn2c(-c3cccs3)nc3ccccc32)c1,inactive: > 76.9 µM
14,COc1ccc(N2CC(C)Cn3c2nc2c3c(=O)n(CCc3ccccc3)c(=O)n2C)cc1 (configuration not stated),inactive: > 76.9 µM
15,O=C(CCn1nc(-c2ccccc2)ccc1=O)N1CCN(c2ccccn2)CC1,inactive: > 76.9 µM
16,O=C(CSc1ccc2nnc(-c3ccccc3)n2n1)NCc1ccco1,inactive: > 76.9 µM
17,Cc1ccc(NC(=O)N(Cc2cc3cc(C)cc(C)c3[nH]c2=O)CC2COCCO2)cc1 (configuration not stated),inactive: > 76.9 µM
18,CC(=O)c1c(C)[nH]c(C(=O)NCCC2=CCCCC2)c1C,inactive: > 76.9 µM
19,Cc1cc(NC(=O)CCC(=O)N(c2ccccc2)C2(C(=O)NC3CCCCC3)CCCC2)no1,inactive: > 76.9 µM
